Laboratory results as given in PubChem BioAssay AID588855 (National Center for Advancing Translational Sciences (NCATS), 2011).
About 5,000 (1.2%) of roughly 410,000 compounds were called active. The inconclusive results got no clear call from the source; some entries with a clear call stand among them for comparison. The call rests on the fitted dose curve; in most records, active means well fitted inhibition curve with a large enough effect; inconclusive means small, poorly fitted or top-dose-only effect; inactive means no such curve, though single readings can be large or run the other way. Potencies beside an inconclusive call are fits to weak or partial responses and may not hold up.

Test: qHTS for Inhibitors of TGF-b; further: nearly all actives have a fitted effect of over 65% in size
Settings: HepG2 CAGA-GFP TGF-b/SMAD3 reporter, GFP fluorescence, 18 h, TGF-beta stimulated, 500 pg/mL final; series mostly up to 46.1 µM; activity, negative = inhibition: at the top concentration
Outline: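 Inhibition of TGF-beta-driven CAGA-GFP reporter expression in HEPG2 cells is measured by cellular GFP fluorescence after 18 h stimulation with 500 pg/mL recombinant TGF-beta in 1% FBS medium at 37 degrees C.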
On the % scale 0 is the no-effect control and ±100 the full control effect; potency means the concentration at half of the fitted maximal effect; tags describe the fitted curve by direction and shape.

Row | SMILES | activity, negative = inhibition | Potency
1 | Cc1cccc(Nc2n[nH]c(C)c2[N+](=O)[O-])c1 | inactive: -15.1% | 
2 | N#C/C(=N/Nc1ccc(OC(F)(F)F)cc1)C(N)=S |  | inconclusive: 0.447 µM [inhibitor, full curve, poor fit]
3 | Cc1ccc(Cl)cc1NC(=O)CCN1C(=O)C2C3CCC(C3)C2C1=O (stereo unspecified) | inactive: -11.4% | 
4 | COc1ccc(C(=O)NCc2cccnc2)cc1C(=O)NCc1cccnc1 | inactive: -3.03% | 
5 | Cc1ccc(S(=O)(=O)NCCNC(=O)c2ccccc2)cc1 | inactive: -10.7% | 
6 | C=C(Br)Cn1cnc2ccccc21 |  | inconclusive: 0.562 µM [inhibitor, partial curve, poor fit]
7 | Cc1cc(O)c(N=Cc2cc3c(cc2[N+](=O)[O-])OCO3)cc1C |  | inconclusive: 14.1 µM [inhibitor, single point]
8 | COc1ccc(Nc2c3ccccc3nc3ccccc23)cc1 |  | inconclusive: 25.1 µM [inhibitor, single point]
9 | CCOC(=O)c1cccc(NC(=O)/C=C/c2ccc3c(c2)OCO3)c1 |  | inconclusive: 12.6 µM [inhibitor, partial curve, poor fit]
10 | O=C(Nc1cccc(S(=O)(=O)NC2=NCCC2)c1)c1cc(F)c(F)c(F)c1F |  | inconclusive: 6.31 µM [inhibitor, single point]
11 | O=C(C1CCCO1)N1CCN(Cc2c(O)ccc3ccccc23)CC1 (stereo unspecified) |  | inconclusive: 22.4 µM [inhibitor, single point]
12 | CCOc1ccc(-c2nnc(SCc3nc4ccccc4[nH]3)n2N)cc1 |  | inconclusive: 17.8 µM [inhibitor, single point]
13 | Cc1cc(NC(=O)CCCC(=O)N(CC(=O)NCCc2ccccc2)Cc2ccc(F)cc2)no1 | inactive: -20.5% | 
14 | C/C(=N\Nc1ccc(S(=O)(=O)N2CCCCC2)cn1)c1cccc(Br)c1 |  | inconclusive: 35.5 µM [inhibitor, single point]
15 | Cc1nc2sc3c(c2c(=O)n1NC(=O)CCBr)CCCC3 | inactive: -26.7% | 
16 | CC(C)OCCCNC(=O)CN1C(=O)COc2ccc(S(=O)(=O)N3CCCCCC3)cc21 |  | inconclusive: 12.6 µM [inhibitor, single point]
17 | CNc1nc(-c2ccc3c(c2)CCN3C(=O)c2ccc(F)cc2)cs1 | inactive: 1.01% | 
18 | COc1ccc(CC(=O)N2CC(C)CC(C)C2)cc1OC (stereo unspecified) |  | inconclusive: 0.316 µM [inhibitor, full curve, poor fit]

Row | SMILES | activity, negative = inhibition | Potency
19 | COc1ccc(C(=O)Cc2ccc(OC)c(OC)c2)c(OC)c1 | inactive: -11.3% | 
20 | COc1ccc(CNC(=O)CCC2N=C3c4ccccc4N=C(SCC(=O)NCC4CCCO4)N3C2=O)cc1 (stereo unspecified) |  | inconclusive: 35.5 µM [inhibitor, single point]
21 | C[C@H](CO)N1C[C@H](C)[C@H](CN(C)C(=O)Nc2ccccc2F)OCc2cnnn2CCCC1=O | inactive: 20.1% | 
22 | O=C(CNCC1CCCCC1)Nc1ccc(OC(F)(F)F)cc1 |  | active: 15.8 µM
23 | Cc1ccc2cc(C)c(SCC#N)nc2c1 | inactive: -2.87% | 
24 | Nc1ccc(C(=O)N/N=C\C=C\c2ccc([N+](=O)[O-])cc2)cc1 | inactive: 0.589% | 
25 | O=C1Nc2ccc(Cl)cc2C(=O)C1(F)c1ccccc1 (stereo unspecified) |  | inconclusive: 14.1 µM [inhibitor, partial curve]
26 | CC(=O)Nc1cc(C(=O)N2CCc3ccccc3C2)ccc1Sc1ccc(Cl)cc1 |  | inconclusive: 17.8 µM [inhibitor, single point]
27 | CC(c1ccco1)N(C(=O)C12CC3CC(CC(C3)C1)C2)c1ccccn1 (stereo unspecified) | inactive: -1.59% | 
28 | O=C(N/N=C/c1cccnc1)c1cc(-c2ccccc2)nc2ccccc12 | inactive: 0% | 
29 | Cc1cc(-c2ccccc2)cc(C)n1 | inactive: -1.27% | 
30 | Cc1ccc(NS(=O)(=O)c2ccc(Cl)c(C(=O)Nc3ccccc3-c3nc4ccccc4[nH]3)c2)cc1C |  | active: 11.2 µM
31 | CCc1ccccc1-n1c(C)nc2cc(C(=O)NCCc3ccc(Cl)cc3)ccc21 |  | inconclusive: 17.8 µM [inhibitor, single point]
32 | O=C(c1sc2cc(Cl)ccc2c1Cl)N1CCN(CCc2ccccn2)CC1 |  | inconclusive: 35.5 µM [inhibitor, single point]
33 | O=C(NCCCc1nc2ccccc2n1Cc1ccc(Cl)cc1)C1CCCCC1 |  | active: 10 µM
34 | COc1ccc2c(C)cc(SCC(=O)Nc3ncc(Cl)cc3Cl)nc2c1 |  | inconclusive: 35.5 µM [inhibitor, single point]
35 | Cc1ccccc1CC(=O)c1ccc(O)c(C)c1O |  | inconclusive: 28.2 µM [inhibitor, single point]
36 | Cc1c(C(=O)N2CCOCC2)[nH]c2ccc(OCc3ccccc3)cc12 |  | inconclusive: 35.5 µM [inhibitor, single point]
